Measurements taken from paper PMC4336329 (PLoS ONE, 2015).
Among all 310,000 compounds or so, about 2,200 (0.71%) showed an effect of 50% or more. The effect is printed as a negative number. The list shows a part of the results.

target: human ether-à-go-go-related gene (hERG) potassium channel (human, UniProt Q12809); experiment: primary screen, population patch clamp on CHO cells stably expressing hERG
Sequence (Q12809 whole entry, looked up): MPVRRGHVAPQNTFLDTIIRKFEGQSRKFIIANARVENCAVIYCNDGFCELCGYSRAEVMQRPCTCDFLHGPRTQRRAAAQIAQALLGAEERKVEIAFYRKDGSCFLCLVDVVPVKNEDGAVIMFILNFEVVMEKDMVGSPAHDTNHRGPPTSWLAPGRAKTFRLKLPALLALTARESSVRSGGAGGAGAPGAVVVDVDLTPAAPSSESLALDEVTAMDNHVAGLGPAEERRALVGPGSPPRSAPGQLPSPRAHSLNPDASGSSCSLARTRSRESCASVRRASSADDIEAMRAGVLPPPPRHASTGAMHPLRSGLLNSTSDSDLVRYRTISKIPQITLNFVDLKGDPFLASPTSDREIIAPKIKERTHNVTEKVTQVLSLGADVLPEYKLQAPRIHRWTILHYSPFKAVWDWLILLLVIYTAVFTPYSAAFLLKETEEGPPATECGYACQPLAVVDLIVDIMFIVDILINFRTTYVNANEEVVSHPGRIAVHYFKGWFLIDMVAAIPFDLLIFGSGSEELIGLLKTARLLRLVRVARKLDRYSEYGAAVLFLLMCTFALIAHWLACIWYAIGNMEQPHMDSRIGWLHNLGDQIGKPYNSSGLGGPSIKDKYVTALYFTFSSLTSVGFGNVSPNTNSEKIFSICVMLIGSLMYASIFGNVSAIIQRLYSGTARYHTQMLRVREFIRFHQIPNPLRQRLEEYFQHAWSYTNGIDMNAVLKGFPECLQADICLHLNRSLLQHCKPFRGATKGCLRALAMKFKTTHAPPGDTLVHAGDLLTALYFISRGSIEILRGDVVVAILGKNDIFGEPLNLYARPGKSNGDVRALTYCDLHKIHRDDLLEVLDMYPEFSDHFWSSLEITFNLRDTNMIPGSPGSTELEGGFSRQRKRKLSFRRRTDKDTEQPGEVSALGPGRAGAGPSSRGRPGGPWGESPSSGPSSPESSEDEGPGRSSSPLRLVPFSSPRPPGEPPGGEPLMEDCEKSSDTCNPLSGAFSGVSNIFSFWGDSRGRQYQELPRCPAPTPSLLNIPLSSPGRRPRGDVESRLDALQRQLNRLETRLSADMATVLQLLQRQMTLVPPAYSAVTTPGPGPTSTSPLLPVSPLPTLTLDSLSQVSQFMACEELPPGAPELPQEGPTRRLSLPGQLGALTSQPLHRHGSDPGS

| SMILES | hERG current change (%, negative = inhibition) at 1uM [%] |
| --- | --- |
| C/C(=N/NC(=O)c1ccc(-c2ccccc2)cc1)c1cc(O)cc(O)c1 | 10.5 |
| Cc1cc(SCc2ccc(Cl)cc2Cl)nc(=O)[nH]1 | 3.58 |
| Cc1nc2ccccc2n1CC(O)COc1ccccc1Cl (stereo not drawn) | 7.5 |
| CN1CC(=O)N2C(c3cccc([N+](=O)[O-])c3)c3[nH]c4ccccc4c3C[C@H]2C1=O (stereo partly drawn) | 19.2 |
| CN1CCN(CCCNC(=O)c2ccc3c(c2)N(Cc2ccc(F)cc2)CCS3)CC1 | 13.2 |
| O=C(c1nc2ccccc2s1)N1CCSCC1 | 11.6 |
| CCCCn1c(N)c(N(CCOC)C(=O)c2cc(Cl)nc3ccccc23)c(=O)[nH]c1=O | 9.65 |
| O=C(O)c1ccc(C(=O)O)c(C(=O)c2ccccc2)c1 | 7.13 |
| COc1cccc(C(NC(=O)c2ccccc2F)NC(=O)c2ccccc2F)c1 | -0.0196 |
| COCCn1c(C)nc2oc3ccc(Br)cc3c(=O)c2c1=O | -14.5 |
| Br.CCCn1c(=N)n(CC(=O)OCC)c2ccccc21 | 13.4 |
| COCCN1CCc2c(C)nc3c(-c4ccc(OC)c(OC)c4)cnn3c21 | 1.67 |
| N#CCSc1nnc(-c2c[nH]c3ccccc23)o1 | 10.9 |
| C=CCNC(=O)CCCOc1cccc(C)c1 | 14 |
| CCCn1c(SCC(=O)N2CCCc3ccccc32)nnc1-c1ccco1 | 3.19 |
| CS(=O)(=O)c1ccc2nc(NC(=O)c3cc([N+](=O)[O-])cc([N+](=O)[O-])c3)sc2c1 | 13.5 |
| CN(CCC(=O)Nc1ccc(Br)cc1)Cc1ccccc1 | -9.25 |
| CN(CC(=O)Nc1cccc(F)c1)CC(=O)Nc1cccc(S(N)(=O)=O)c1 | 5.95 |
| COc1ccccc1/C=N/NC(=O)C1=NNC(c2ccccc2)(c2ccccc2)C1 | 9.85 |
| CCN(CC)CCSc1nnc2c3ccccc3n(CCc3ccccc3)c2n1 | -18.1 |
| COc1ccc(CCN2CCCn3c2nc2c3c(=O)[nH]c(=O)n2C)cc1OC | 6.45 |
| CSCC[C@H](NS(=O)(=O)c1ccc(C)cc1)C(=O)N1CCC(C(=O)N[C@H](C(=O)O)c2ccccc2)CC1 | 2.19 |
| CC(C)(C)NC(=O)NC(=O)CN1c2cccc3cccc(c23)S1(=O)=O | 16.2 |
| Cc1ccccc1NC(=O)NC1(C(=O)N2CCC(C(N)=O)CC2)CCCCC1 | 10.2 |
